Numbering of substitutions follows the chain as printed; changes in the protein carry UniProt numbers. The list shows a part of the results.
T1: RBFOX1 RRM (Homo sapiens, UniProt Q9NWB1 109-208)
T1 sequence: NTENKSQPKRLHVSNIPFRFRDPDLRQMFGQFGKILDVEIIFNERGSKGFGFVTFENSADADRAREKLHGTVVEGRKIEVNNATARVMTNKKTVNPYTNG

B1: UAUCUCC (DNA:RNA)
RNA: GGGAGACCGGAAUUCAGAUUGUCCUAUCUCCUUAAAUCCCGUCGUAGCCACCA
DNA 1: CAATCTGAATTCCGGTCTCCC
DNA 2: TGGTGGCTACGACGGGATT
B2: GGUGAAU (DNA:RNA)
RNA: B1 RNA with U25G, A26G, C28G, U29A, C30A, C31U
DNA 1: CAATCTGAATTCCGGTCTCCC
DNA 2: TGGTGGCTACGACGGGATT
B3: AAAUUCG (DNA:RNA)
RNA: B1 RNA with U25A, U27A, C28U, C31G
DNA 1: CAATCTGAATTCCGGTCTCCC
DNA 2: TGGTGGCTACGACGGGATT
B4: CUGGUAG (DNA:RNA)
RNA: B1 RNA with U25C, A26U, U27G, C28G, C30A, C31G
DNA 1: CAATCTGAATTCCGGTCTCCC
DNA 2: TGGTGGCTACGACGGGATT
B5: GUGGCUC (DNA:RNA)
RNA: B1 RNA with U25G, A26U, U27G, C28G, U29C, C30U
DNA 1: CAATCTGAATTCCGGTCTCCC
DNA 2: TGGTGGCTACGACGGGATT
B6: GACUCUC (DNA:RNA)
RNA: B1 RNA with U25G, U27C, C28U, U29C, C30U
DNA 1: CAATCTGAATTCCGGTCTCCC
DNA 2: TGGTGGCTACGACGGGATT
B7: UUCAUAG (DNA:RNA)
RNA: B1 RNA with A26U, U27C, C28A, C30A, C31G
DNA 1: CAATCTGAATTCCGGTCTCCC
DNA 2: TGGTGGCTACGACGGGATT
B8: UGUUGUU (DNA:RNA)
RNA: B1 RNA with A26G, C28U, U29G, C30U, C31U
DNA 1: CAATCTGAATTCCGGTCTCCC
DNA 2: TGGTGGCTACGACGGGATT
B9: AGCUAUU (DNA:RNA)
RNA: GGGAGACCGGAAUUCAGAUUGUCCAGCUAUUUUAAAUCCCGUCGUAGCCACCA
DNA 1: CAATCTGAATTCCGGTCTCCC
DNA 2: TGGTGGCTACGACGGGATT
B10: UAUUCUA (DNA:RNA)
RNA: B1 RNA with C28U, U29C, C30U, C31A
DNA 1: CAATCTGAATTCCGGTCTCCC
DNA 2: TGGTGGCTACGACGGGATT
B11: GCCUAGA (DNA:RNA)
RNA: B9 RNA with A25G, G26C, U30G, U31A
DNA 1: CAATCTGAATTCCGGTCTCCC
DNA 2: TGGTGGCTACGACGGGATT
B12: CGGAGUA (DNA:RNA)
RNA: B9 RNA with A25C, C27G, U28A, A29G, U31A
DNA 1: CAATCTGAATTCCGGTCTCCC
DNA 2: TGGTGGCTACGACGGGATT
B13: AUCUGCU (DNA:RNA)
RNA: B9 RNA with G26U, A29G, U30C
DNA 1: CAATCTGAATTCCGGTCTCCC
DNA 2: TGGTGGCTACGACGGGATT
B14: AAGCGUU (DNA:RNA)
RNA: B9 RNA with G26A, C27G, U28C, A29G
DNA 1: CAATCTGAATTCCGGTCTCCC
DNA 2: TGGTGGCTACGACGGGATT
B15: AGGAAGC (DNA:RNA)
RNA: B9 RNA with C27G, U28A, U30G, U31C
DNA 1: CAATCTGAATTCCGGTCTCCC
DNA 2: TGGTGGCTACGACGGGATT
B16: AAGUGCA (DNA:RNA)
RNA: B9 RNA with G26A, C27G, A29G, U30C, U31A
DNA 1: CAATCTGAATTCCGGTCTCCC
DNA 2: TGGTGGCTACGACGGGATT
B17: GCCGAAG (DNA:RNA)
RNA: B9 RNA with A25G, G26C, U28G, U30A, U31G
DNA 1: CAATCTGAATTCCGGTCTCCC
DNA 2: TGGTGGCTACGACGGGATT
B18: CGGUUAU (DNA:RNA)
RNA: B9 RNA with A25C, C27G, A29U, U30A
DNA 1: CAATCTGAATTCCGGTCTCCC
DNA 2: TGGTGGCTACGACGGGATT
B19: GAAGAUC (DNA:RNA)
RNA: B9 RNA with A25G, G26A, C27A, U28G, U31C
DNA 1: CAATCTGAATTCCGGTCTCCC
DNA 2: TGGTGGCTACGACGGGATT
B20: AAAGAGU (DNA:RNA)
RNA: B9 RNA with G26A, C27A, U28G, U30G
DNA 1: CAATCTGAATTCCGGTCTCCC
DNA 2: TGGTGGCTACGACGGGATT
B21: GUCUGUC (DNA:RNA)
RNA: B9 RNA with A25G, G26U, A29G, U31C
DNA 1: CAATCTGAATTCCGGTCTCCC
DNA 2: TGGTGGCTACGACGGGATT
B22: GUCGUAA (DNA:RNA)
RNA: B9 RNA with A25G, G26U, U28G, A29U, U30A, U31A
DNA 1: CAATCTGAATTCCGGTCTCCC
DNA 2: TGGTGGCTACGACGGGATT
B23: CGGCAUU (DNA:RNA)
RNA: B9 RNA with A25C, C27G, U28C
DNA 1: CAATCTGAATTCCGGTCTCCC
DNA 2: TGGTGGCTACGACGGGATT
B24: CCUAGCC (DNA:RNA)
RNA: B1 RNA with U25C, A26C, C28A, U29G
DNA 1: CAATCTGAATTCCGGTCTCCC
DNA 2: TGGTGGCTACGACGGGATT
B25: GAAGGUG (DNA:RNA)
RNA: B9 RNA with A25G, G26A, C27A, U28G, A29G, U31G
DNA 1: CAATCTGAATTCCGGTCTCCC
DNA 2: TGGTGGCTACGACGGGATT
B26: GGUCACA (DNA:RNA)
RNA: B1 RNA with U25G, A26G, U29A, C31A
DNA 1: CAATCTGAATTCCGGTCTCCC
DNA 2: TGGTGGCTACGACGGGATT
B27: AAAGGGC (DNA:RNA)
RNA: B1 RNA with U25A, U27A, C28G, U29G, C30G
DNA 1: CAATCTGAATTCCGGTCTCCC
DNA 2: TGGTGGCTACGACGGGATT
B28: CAGGCUG (DNA:RNA)
RNA: B9 RNA with A25C, G26A, C27G, U28G, A29C, U31G
DNA 1: CAATCTGAATTCCGGTCTCCC
DNA 2: TGGTGGCTACGACGGGATT
B29: GUAUAGU (DNA:RNA)
RNA: B9 RNA with A25G, G26U, C27A, U30G
DNA 1: CAATCTGAATTCCGGTCTCCC
DNA 2: TGGTGGCTACGACGGGATT
B30: GACACCC (DNA:RNA)
RNA: B1 RNA with U25G, U27C, C28A, U29C
DNA 1: CAATCTGAATTCCGGTCTCCC
DNA 2: TGGTGGCTACGACGGGATT
B31: AGAUUGC (DNA:RNA)
RNA: B9 RNA with C27A, A29U, U30G, U31C
DNA 1: CAATCTGAATTCCGGTCTCCC
DNA 2: TGGTGGCTACGACGGGATT

These binders were tested against T1, RBFOX1 RRM (assay: EMSA; HiTS-Eq, 1 nM pool, 10 min; buffer printed only for the single-RNA assays: 10 mM Tris pH 7.5, 150 mM NaCl, 3.4 mM EDTA, 0.001% NP-40, 30 C). Details: tags: His6 N-terminal (pET28a); label: 5' 32P.
Procedure, shortened: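 These values rest on relative association constants, computed from read-count changes of each RNA species versus the control reaction and normalised to the cognate motif. Reads came from free RNA recovered by 8% native PAGE after purified RbFox RRM (wild type or mutant) at increasing concentrations was equilibrated for 10 min in 50 µL with 1 nM of a 5′-radiolabelled pool with 7 randomized nucleotides and DNA-annealed flanks.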

Binder	binding signal
B1	0.00352 KA relative to UGCAUGU
B2	0.0155 KA relative to UGCAUGU
B3	0.0102 KA relative to UGCAUGU
B4	0.0238 KA relative to UGCAUGU
B5	0.0226 KA relative to UGCAUGU
B6	0.0119 KA relative to UGCAUGU
B7	0.0077 KA relative to UGCAUGU
B8	0.0248 KA relative to UGCAUGU
B9	0.00809 KA relative to UGCAUGU
B10	0.00393 KA relative to UGCAUGU
B11	0.0135 KA relative to UGCAUGU
B12	0.0138 KA relative to UGCAUGU
B13	0.0118 KA relative to UGCAUGU
B14	0.00533 KA relative to UGCAUGU
B15	0.0126 KA relative to UGCAUGU
B16	0.0164 KA relative to UGCAUGU

Binder	binding signal
B17	0.0193 KA relative to UGCAUGU
B18	0.0102 KA relative to UGCAUGU
B19	0.0114 KA relative to UGCAUGU
B20	0.00527 KA relative to UGCAUGU
B21	0.0176 KA relative to UGCAUGU
B22	0.00666 KA relative to UGCAUGU
B23	0.0122 KA relative to UGCAUGU
B24	0.00506 KA relative to UGCAUGU
B25	0.0185 KA relative to UGCAUGU
B26	0.00186 KA relative to UGCAUGU
B27	0.00798 KA relative to UGCAUGU
B28	0.0137 KA relative to UGCAUGU
B29	0.00855 KA relative to UGCAUGU
B30	0.00284 KA relative to UGCAUGU
B31	0.013 KA relative to UGCAUGU
